Experiment [1] concerns the target T1, HA-tagged JMJD1A (Jumonji C domain-containing 1A) (UniProt Q9Y4C1).
T1 sequence: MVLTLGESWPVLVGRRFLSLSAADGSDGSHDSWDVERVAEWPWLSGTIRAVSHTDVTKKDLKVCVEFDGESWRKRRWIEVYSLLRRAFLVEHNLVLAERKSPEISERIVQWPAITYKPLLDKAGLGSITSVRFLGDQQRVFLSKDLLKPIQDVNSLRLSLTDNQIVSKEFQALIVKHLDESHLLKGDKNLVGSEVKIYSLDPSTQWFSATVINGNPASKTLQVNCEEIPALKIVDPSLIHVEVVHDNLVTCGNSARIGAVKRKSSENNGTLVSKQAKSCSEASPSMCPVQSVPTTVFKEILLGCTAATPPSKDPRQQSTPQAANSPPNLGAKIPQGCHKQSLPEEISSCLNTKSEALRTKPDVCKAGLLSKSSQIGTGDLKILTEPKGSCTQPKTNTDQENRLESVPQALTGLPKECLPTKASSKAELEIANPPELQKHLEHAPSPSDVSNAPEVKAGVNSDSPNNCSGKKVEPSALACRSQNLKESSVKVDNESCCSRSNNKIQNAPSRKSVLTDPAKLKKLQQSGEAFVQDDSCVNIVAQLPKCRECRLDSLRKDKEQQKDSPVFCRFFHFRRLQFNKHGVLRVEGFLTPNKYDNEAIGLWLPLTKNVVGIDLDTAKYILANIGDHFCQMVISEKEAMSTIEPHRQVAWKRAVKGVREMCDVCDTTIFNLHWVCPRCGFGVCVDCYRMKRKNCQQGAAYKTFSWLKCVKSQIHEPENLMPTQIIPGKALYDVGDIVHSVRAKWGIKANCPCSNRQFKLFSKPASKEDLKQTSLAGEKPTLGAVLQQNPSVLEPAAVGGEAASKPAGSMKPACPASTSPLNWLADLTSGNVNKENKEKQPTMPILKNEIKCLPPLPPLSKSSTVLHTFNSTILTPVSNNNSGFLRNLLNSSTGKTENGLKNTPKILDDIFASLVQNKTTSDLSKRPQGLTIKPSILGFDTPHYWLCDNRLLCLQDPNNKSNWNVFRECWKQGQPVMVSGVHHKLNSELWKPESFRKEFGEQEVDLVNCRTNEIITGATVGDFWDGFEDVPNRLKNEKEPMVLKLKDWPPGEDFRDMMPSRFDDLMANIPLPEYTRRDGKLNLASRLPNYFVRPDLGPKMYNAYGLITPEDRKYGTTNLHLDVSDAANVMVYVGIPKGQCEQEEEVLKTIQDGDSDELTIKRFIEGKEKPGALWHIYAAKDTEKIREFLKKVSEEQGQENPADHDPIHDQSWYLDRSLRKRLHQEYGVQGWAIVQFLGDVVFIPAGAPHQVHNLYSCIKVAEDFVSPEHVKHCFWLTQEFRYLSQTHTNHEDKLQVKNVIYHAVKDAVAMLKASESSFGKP
Description: co-IP; coexpression in 293T cells; anti-HA immunoprecipitation, coprecipitated Flag-tagged protein detected by anti-Flag blotting.

Amino acid sequences for entries named in this document (tags omitted).
UniProt Q7LBC6: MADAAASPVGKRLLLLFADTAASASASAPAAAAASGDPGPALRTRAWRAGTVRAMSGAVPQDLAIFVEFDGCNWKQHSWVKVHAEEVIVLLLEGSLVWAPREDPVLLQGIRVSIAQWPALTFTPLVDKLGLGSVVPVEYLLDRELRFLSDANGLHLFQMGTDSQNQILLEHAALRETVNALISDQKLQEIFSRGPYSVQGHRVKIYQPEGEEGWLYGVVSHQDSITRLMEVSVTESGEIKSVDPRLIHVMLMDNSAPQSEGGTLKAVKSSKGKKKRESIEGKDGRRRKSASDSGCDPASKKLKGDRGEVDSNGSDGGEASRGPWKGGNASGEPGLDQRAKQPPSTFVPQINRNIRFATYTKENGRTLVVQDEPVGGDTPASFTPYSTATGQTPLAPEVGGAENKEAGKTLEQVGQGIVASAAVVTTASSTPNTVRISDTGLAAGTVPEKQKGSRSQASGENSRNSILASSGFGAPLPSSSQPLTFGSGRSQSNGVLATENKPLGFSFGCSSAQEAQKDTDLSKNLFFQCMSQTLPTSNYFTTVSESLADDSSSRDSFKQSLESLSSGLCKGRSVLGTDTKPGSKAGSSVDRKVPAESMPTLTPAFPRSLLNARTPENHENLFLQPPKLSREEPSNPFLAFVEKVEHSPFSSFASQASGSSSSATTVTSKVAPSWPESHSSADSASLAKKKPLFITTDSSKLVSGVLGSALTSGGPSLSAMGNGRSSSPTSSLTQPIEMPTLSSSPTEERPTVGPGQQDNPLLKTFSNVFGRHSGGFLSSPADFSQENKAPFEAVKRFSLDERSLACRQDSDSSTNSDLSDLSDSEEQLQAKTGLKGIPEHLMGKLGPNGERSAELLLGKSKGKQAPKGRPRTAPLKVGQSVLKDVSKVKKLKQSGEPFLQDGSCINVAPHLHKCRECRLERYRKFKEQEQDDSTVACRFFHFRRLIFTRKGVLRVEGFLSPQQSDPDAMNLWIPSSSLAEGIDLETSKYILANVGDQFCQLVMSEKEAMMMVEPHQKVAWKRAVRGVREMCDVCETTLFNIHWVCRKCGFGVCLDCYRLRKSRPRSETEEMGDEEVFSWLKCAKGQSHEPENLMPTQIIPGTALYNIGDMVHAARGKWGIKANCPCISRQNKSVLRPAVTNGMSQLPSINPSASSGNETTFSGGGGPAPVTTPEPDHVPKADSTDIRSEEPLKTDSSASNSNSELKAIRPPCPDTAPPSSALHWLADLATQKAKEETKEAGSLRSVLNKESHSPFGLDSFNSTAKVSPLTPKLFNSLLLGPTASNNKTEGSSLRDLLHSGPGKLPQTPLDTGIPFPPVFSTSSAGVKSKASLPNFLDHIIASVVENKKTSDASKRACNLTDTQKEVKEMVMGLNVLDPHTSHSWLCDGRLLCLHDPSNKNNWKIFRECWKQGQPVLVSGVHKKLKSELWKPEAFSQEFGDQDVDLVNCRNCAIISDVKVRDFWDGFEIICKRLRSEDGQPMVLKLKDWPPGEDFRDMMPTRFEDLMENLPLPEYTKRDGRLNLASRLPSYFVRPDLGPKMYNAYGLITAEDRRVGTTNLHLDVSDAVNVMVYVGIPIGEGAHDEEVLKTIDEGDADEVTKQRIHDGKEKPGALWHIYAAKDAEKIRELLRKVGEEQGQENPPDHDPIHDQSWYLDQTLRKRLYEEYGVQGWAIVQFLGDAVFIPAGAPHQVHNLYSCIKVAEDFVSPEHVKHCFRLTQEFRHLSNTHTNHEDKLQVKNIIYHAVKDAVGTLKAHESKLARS
UniProt O15550: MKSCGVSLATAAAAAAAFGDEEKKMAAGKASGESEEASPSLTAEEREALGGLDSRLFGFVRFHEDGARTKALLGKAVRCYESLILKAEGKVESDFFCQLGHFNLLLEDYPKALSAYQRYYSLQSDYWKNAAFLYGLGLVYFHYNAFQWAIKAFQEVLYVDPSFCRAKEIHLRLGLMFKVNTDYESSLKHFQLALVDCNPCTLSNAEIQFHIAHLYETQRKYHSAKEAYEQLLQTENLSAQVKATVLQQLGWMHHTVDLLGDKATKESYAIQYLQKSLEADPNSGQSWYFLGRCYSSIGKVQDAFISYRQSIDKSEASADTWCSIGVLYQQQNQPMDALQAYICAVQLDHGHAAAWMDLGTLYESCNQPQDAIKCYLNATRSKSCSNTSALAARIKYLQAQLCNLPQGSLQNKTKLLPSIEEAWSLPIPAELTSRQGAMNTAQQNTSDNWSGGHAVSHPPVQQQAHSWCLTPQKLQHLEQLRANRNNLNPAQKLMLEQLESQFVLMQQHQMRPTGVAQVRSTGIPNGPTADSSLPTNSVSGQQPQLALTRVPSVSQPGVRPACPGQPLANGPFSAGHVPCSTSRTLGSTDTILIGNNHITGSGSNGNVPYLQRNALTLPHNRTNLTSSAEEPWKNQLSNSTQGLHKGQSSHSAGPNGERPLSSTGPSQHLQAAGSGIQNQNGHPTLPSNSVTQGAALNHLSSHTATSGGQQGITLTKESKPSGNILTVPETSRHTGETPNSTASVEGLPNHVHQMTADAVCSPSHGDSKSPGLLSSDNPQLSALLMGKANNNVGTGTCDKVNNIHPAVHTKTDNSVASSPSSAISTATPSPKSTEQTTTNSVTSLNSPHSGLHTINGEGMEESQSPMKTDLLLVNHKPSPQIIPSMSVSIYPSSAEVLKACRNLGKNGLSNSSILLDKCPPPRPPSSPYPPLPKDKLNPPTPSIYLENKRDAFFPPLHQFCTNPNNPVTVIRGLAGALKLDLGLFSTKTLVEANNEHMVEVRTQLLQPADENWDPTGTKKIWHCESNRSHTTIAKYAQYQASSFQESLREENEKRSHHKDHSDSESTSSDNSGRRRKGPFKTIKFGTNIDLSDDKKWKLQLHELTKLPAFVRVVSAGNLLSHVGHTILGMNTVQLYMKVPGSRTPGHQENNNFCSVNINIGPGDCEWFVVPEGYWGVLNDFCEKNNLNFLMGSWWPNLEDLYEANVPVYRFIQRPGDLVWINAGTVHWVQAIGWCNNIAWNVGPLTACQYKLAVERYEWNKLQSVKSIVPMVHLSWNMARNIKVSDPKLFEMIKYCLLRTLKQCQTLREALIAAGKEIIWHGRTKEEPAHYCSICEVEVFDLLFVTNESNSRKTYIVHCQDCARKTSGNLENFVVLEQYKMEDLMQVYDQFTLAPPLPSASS
UniProt O75151: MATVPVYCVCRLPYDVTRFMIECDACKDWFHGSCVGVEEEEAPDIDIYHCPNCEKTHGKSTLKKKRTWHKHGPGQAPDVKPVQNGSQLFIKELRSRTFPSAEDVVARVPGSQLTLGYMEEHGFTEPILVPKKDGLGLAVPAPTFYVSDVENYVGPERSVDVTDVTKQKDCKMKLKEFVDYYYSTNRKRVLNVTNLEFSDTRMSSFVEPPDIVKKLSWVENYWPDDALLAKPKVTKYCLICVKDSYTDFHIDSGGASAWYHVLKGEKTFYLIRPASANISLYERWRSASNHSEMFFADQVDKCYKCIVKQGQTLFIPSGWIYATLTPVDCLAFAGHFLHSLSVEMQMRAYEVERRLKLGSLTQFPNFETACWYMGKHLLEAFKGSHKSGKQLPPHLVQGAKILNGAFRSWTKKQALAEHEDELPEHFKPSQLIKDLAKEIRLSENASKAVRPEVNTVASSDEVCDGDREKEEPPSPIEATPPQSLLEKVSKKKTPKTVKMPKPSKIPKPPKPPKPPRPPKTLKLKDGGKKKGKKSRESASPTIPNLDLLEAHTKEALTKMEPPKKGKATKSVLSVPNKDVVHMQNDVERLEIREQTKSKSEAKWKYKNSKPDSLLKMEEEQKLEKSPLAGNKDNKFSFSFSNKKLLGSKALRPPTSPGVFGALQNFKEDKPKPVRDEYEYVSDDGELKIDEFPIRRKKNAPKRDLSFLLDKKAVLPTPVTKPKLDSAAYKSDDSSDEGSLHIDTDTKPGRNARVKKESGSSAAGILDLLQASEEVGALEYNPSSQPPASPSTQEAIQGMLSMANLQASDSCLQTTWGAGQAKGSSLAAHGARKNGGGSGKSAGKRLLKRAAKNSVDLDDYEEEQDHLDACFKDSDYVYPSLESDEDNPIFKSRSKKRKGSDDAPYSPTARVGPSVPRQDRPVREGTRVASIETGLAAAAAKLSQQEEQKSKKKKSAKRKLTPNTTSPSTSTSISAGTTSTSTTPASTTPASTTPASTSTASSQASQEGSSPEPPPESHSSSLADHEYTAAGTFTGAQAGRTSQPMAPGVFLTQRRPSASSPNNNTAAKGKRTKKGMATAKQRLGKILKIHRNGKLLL

For the next experiment, the target named is HA-tagged JMJD1B (UniProt Q7LBC6). The experiment is described as above.
The target in a further experiment is HA-tagged UTX (UniProt O15550). Described as above.
The target of a further experiment is HA-tagged PHF2 (UniProt O75151). The description is as above.
Experiment [2] addresses T2, Flag-tagged MDFIC (MyoD family inhibitor domain-containing) (UniProt Q9P1T7).
T2 sequence: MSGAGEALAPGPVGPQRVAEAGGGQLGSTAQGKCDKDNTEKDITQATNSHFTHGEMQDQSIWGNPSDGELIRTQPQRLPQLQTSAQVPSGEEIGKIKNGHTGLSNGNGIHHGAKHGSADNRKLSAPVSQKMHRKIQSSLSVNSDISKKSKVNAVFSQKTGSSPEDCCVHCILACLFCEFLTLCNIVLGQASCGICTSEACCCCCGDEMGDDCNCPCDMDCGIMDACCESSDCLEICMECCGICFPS
Description: co-IP; reverse order: coexpression in 293T cells; anti-Flag immunoprecipitation followed by anti-HA blotting.

For experiment [3], the target named is T3, Flag-tagged MDFI (MyoD family inhibitor) (UniProt Q99750).
T3 sequence: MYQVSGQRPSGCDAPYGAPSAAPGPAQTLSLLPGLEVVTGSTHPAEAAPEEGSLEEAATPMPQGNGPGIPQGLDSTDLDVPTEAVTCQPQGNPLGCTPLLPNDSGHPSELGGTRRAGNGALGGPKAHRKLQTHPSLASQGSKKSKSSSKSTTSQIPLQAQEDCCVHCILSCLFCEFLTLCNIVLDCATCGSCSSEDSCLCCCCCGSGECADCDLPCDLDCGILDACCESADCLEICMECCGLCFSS
The experiment is described as above.

The target in another experiment is T4, GST-MDFI (UniProt Q99750).
T4 sequence: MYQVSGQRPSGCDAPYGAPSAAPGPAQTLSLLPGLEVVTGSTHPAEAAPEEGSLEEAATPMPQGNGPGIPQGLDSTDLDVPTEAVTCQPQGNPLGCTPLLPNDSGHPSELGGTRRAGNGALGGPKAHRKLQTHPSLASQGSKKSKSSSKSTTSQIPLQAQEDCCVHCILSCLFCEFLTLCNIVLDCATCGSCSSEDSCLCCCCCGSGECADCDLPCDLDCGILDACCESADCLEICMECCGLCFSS
Description: pull-down; GST fusion proteins bound to glutathione agarose, challenged with purified Flag-6His-JMJD1A; bound JMJD1A revealed by anti-Flag Western blotting; both purified.

Another experiment has as its target T5, GST-MDFIC (UniProt Q9P1T7).
T5 sequence: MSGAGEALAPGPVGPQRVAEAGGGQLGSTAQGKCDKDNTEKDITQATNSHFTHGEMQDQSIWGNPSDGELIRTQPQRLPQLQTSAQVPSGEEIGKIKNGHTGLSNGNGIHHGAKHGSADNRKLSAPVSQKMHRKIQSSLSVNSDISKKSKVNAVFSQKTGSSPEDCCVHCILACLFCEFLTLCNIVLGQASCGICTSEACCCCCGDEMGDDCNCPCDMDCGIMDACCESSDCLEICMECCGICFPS
The description is as above.

Results are given in words; binding and its absence hold for the method and conditions named. For part of these data: Binding seen in cells or lysates may run through a third protein. Some results given as binding are weak or reduced against the parent protein; the word gives no strength. Where a sequence is shown, tags or fusion partners need not be part of it.

B1: Flag-tagged MDFIC (MyoD family inhibitor domain-containing) (protein, UniProt Q9P1T7 1-246)
chain: MSGAGEALAPGPVGPQRVAEAGGGQLGSTAQGKCDKDNTEKDITQATNSHFTHGEMQDQSIWGNPSDGELIRTQPQRLPQLQTSAQVPSGEEIGKIKNGHTGLSNGNGIHHGAKHGSADNRKLSAPVSQKMHRKIQSSLSVNSDISKKSKVNAVFSQKTGSSPEDCCVHCILACLFCEFLTLCNIVLGQASCGICTSEACCCCCGDEMGDDCNCPCDMDCGIMDACCESSDCLEICMECCGICFPS
Regarding B1, the binding result in experiment [1] was “binds”.

B2: Flag-tagged MDFI (MyoD family inhibitor) (protein, UniProt Q99750 1-246)
chain: MYQVSGQRPSGCDAPYGAPSAAPGPAQTLSLLPGLEVVTGSTHPAEAAPEEGSLEEAATPMPQGNGPGIPQGLDSTDLDVPTEAVTCQPQGNPLGCTPLLPNDSGHPSELGGTRRAGNGALGGPKAHRKLQTHPSLASQGSKKSKSSSKSTTSQIPLQAQEDCCVHCILSCLFCEFLTLCNIVLDCATCGSCSSEDSCLCCCCCGSGECADCDLPCDLDCGILDACCESADCLEICMECCGLCFSS
Regarding B2, the binding result with HA-tagged JMJD1B is reported as “no binding”; in the experiment with HA-tagged UTX, “no binding”; with HA-tagged PHF2, “no binding”; in experiment [1], “binds”.

B3: HA-tagged JMJD1A (Jumonji C domain-containing 1A) (protein, UniProt Q9Y4C1 1-1321)
chain: MVLTLGESWPVLVGRRFLSLSAADGSDGSHDSWDVERVAEWPWLSGTIRAVSHTDVTKKDLKVCVEFDGESWRKRRWIEVYSLLRRAFLVEHNLVLAERKSPEISERIVQWPAITYKPLLDKAGLGSITSVRFLGDQQRVFLSKDLLKPIQDVNSLRLSLTDNQIVSKEFQALIVKHLDESHLLKGDKNLVGSEVKIYSLDPSTQWFSATVINGNPASKTLQVNCEEIPALKIVDPSLIHVEVVHDNLVTCGNSARIGAVKRKSSENNGTLVSKQAKSCSEASPSMCPVQSVPTTVFKEILLGCTAATPPSKDPRQQSTPQAANSPPNLGAKIPQGCHKQSLPEEISSCLNTKSEALRTKPDVCKAGLLSKSSQIGTGDLKILTEPKGSCTQPKTNTDQENRLESVPQALTGLPKECLPTKASSKAELEIANPPELQKHLEHAPSPSDVSNAPEVKAGVNSDSPNNCSGKKVEPSALACRSQNLKESSVKVDNESCCSRSNNKIQNAPSRKSVLTDPAKLKKLQQSGEAFVQDDSCVNIVAQLPKCRECRLDSLRKDKEQQKDSPVFCRFFHFRRLQFNKHGVLRVEGFLTPNKYDNEAIGLWLPLTKNVVGIDLDTAKYILANIGDHFCQMVISEKEAMSTIEPHRQVAWKRAVKGVREMCDVCDTTIFNLHWVCPRCGFGVCVDCYRMKRKNCQQGAAYKTFSWLKCVKSQIHEPENLMPTQIIPGKALYDVGDIVHSVRAKWGIKANCPCSNRQFKLFSKPASKEDLKQTSLAGEKPTLGAVLQQNPSVLEPAAVGGEAASKPAGSMKPACPASTSPLNWLADLTSGNVNKENKEKQPTMPILKNEIKCLPPLPPLSKSSTVLHTFNSTILTPVSNNNSGFLRNLLNSSTGKTENGLKNTPKILDDIFASLVQNKTTSDLSKRPQGLTIKPSILGFDTPHYWLCDNRLLCLQDPNNKSNWNVFRECWKQGQPVMVSGVHHKLNSELWKPESFRKEFGEQEVDLVNCRTNEIITGATVGDFWDGFEDVPNRLKNEKEPMVLKLKDWPPGEDFRDMMPSRFDDLMANIPLPEYTRRDGKLNLASRLPNYFVRPDLGPKMYNAYGLITPEDRKYGTTNLHLDVSDAANVMVYVGIPKGQCEQEEEVLKTIQDGDSDELTIKRFIEGKEKPGALWHIYAAKDTEKIREFLKKVSEEQGQENPADHDPIHDQSWYLDRSLRKRLHQEYGVQGWAIVQFLGDVVFIPAGAPHQVHNLYSCIKVAEDFVSPEHVKHCFWLTQEFRYLSQTHTNHEDKLQVKNVIYHAVKDAVAMLKASESSFGKP
In the case of B3, the binding result in experiment [2] and in experiment [3] was “binds” throughout.

B4: Flag-6His-JMJD1A (protein, UniProt Q9Y4C1 1-1321)
chain: MVLTLGESWPVLVGRRFLSLSAADGSDGSHDSWDVERVAEWPWLSGTIRAVSHTDVTKKDLKVCVEFDGESWRKRRWIEVYSLLRRAFLVEHNLVLAERKSPEISERIVQWPAITYKPLLDKAGLGSITSVRFLGDQQRVFLSKDLLKPIQDVNSLRLSLTDNQIVSKEFQALIVKHLDESHLLKGDKNLVGSEVKIYSLDPSTQWFSATVINGNPASKTLQVNCEEIPALKIVDPSLIHVEVVHDNLVTCGNSARIGAVKRKSSENNGTLVSKQAKSCSEASPSMCPVQSVPTTVFKEILLGCTAATPPSKDPRQQSTPQAANSPPNLGAKIPQGCHKQSLPEEISSCLNTKSEALRTKPDVCKAGLLSKSSQIGTGDLKILTEPKGSCTQPKTNTDQENRLESVPQALTGLPKECLPTKASSKAELEIANPPELQKHLEHAPSPSDVSNAPEVKAGVNSDSPNNCSGKKVEPSALACRSQNLKESSVKVDNESCCSRSNNKIQNAPSRKSVLTDPAKLKKLQQSGEAFVQDDSCVNIVAQLPKCRECRLDSLRKDKEQQKDSPVFCRFFHFRRLQFNKHGVLRVEGFLTPNKYDNEAIGLWLPLTKNVVGIDLDTAKYILANIGDHFCQMVISEKEAMSTIEPHRQVAWKRAVKGVREMCDVCDTTIFNLHWVCPRCGFGVCVDCYRMKRKNCQQGAAYKTFSWLKCVKSQIHEPENLMPTQIIPGKALYDVGDIVHSVRAKWGIKANCPCSNRQFKLFSKPASKEDLKQTSLAGEKPTLGAVLQQNPSVLEPAAVGGEAASKPAGSMKPACPASTSPLNWLADLTSGNVNKENKEKQPTMPILKNEIKCLPPLPPLSKSSTVLHTFNSTILTPVSNNNSGFLRNLLNSSTGKTENGLKNTPKILDDIFASLVQNKTTSDLSKRPQGLTIKPSILGFDTPHYWLCDNRLLCLQDPNNKSNWNVFRECWKQGQPVMVSGVHHKLNSELWKPESFRKEFGEQEVDLVNCRTNEIITGATVGDFWDGFEDVPNRLKNEKEPMVLKLKDWPPGEDFRDMMPSRFDDLMANIPLPEYTRRDGKLNLASRLPNYFVRPDLGPKMYNAYGLITPEDRKYGTTNLHLDVSDAANVMVYVGIPKGQCEQEEEVLKTIQDGDSDELTIKRFIEGKEKPGALWHIYAAKDTEKIREFLKKVSEEQGQENPADHDPIHDQSWYLDRSLRKRLHQEYGVQGWAIVQFLGDVVFIPAGAPHQVHNLYSCIKVAEDFVSPEHVKHCFWLTQEFRYLSQTHTNHEDKLQVKNVIYHAVKDAVAMLKASESSFGKP
With B4, the binding result with GST-MDFI and with GST-MDFIC was “binds” throughout.

For the origin of these results see article PMC7250871.
